Hit rate of the full screen: of about 310,000 compounds, about 14,000 (4.5%) showed an effect of 50% or more. Effects have a minus sign here. The list shows a part of the results.
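Note: peak tail current of the secondary pulse compared with the same well before compound.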

This assay deals with human ether-à-go-go-related gene (hERG) potassium channel (human, UniProt Q12809). Description: primary screen, population patch clamp on CHO cells stably expressing hERG.
Chain of human ether-à-go-go-related gene (hERG) potassium channel (Q12809 whole entry, looked up): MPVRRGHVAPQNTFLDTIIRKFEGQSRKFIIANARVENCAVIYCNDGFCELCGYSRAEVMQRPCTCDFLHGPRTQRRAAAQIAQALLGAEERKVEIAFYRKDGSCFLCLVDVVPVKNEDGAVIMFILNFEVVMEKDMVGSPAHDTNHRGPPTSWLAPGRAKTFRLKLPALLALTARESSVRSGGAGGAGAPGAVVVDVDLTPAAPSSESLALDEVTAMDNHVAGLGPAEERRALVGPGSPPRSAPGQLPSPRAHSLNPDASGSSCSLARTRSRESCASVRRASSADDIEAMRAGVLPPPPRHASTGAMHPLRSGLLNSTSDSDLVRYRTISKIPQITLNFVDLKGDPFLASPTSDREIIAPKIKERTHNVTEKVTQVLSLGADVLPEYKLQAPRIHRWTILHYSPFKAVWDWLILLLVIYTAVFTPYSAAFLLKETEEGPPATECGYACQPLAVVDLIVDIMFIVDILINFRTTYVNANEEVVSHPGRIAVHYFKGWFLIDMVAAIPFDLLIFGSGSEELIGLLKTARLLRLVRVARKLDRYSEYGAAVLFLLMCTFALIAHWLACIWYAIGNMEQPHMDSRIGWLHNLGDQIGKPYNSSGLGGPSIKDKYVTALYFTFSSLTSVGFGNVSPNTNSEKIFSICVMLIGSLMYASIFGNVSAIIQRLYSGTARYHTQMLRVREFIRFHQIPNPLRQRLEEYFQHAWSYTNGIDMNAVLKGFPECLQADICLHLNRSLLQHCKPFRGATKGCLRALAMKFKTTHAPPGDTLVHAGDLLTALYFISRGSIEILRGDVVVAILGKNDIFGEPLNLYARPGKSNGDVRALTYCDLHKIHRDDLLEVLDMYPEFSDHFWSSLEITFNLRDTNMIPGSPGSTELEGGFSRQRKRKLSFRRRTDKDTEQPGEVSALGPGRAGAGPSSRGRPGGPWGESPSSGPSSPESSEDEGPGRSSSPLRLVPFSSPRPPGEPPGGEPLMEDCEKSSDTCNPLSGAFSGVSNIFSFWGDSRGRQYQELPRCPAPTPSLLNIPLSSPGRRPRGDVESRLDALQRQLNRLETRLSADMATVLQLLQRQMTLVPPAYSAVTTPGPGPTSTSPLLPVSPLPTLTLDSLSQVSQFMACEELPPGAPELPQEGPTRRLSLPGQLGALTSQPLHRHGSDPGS
Turning to `CC1CCN(C(=O)c2ccc(NC(=O)C3CCCO3)cc2)CC1` (stereo not drawn), the “hERG current change (%, negative = inhibition) at 10uM” value was determined as 19%.

Take `O=C(NN1C(=O)C2C(c3ccccc3)C=CC(c3ccccc3)C2C1=O)c1cccc(Br)c1` (stereo not drawn): the “hERG current change (%, negative = inhibition) at 10uM” value came out at 18.2%. The figure for `CCOc1ccc(C(C)(N)C(=O)O)cc1` (stereo not drawn) is -2.39%; for `Cc1ccc2ccc[n+](Cc3ccccc3)c2c1.[Br-]` it is -4.2%. Consider `CN1C(=O)c2cccc3c(S(=O)(=O)NCc4ccco4)ccc1c23`, for which the “hERG current change (%, negative = inhibition) at 10uM” value is reported as -36.4%. In the case of `NC(=O)C1CCN(C(=O)C2CCC(=O)N(C3CCCCCC3)C2)CC1` (stereo not drawn), the “hERG current change (%, negative = inhibition) at 10uM” value was 30.2%. As to `O=C(N/N=C/c1c[nH]c2ccccc12)c1cc(-c2ccc(-c3ccccc3)cc2)n[nH]1`, the “hERG current change (%, negative = inhibition) at 10uM” value is given as 12.6%.

`COc1ccc(OCc2n[nH]c(=S)o2)cc1`: the “hERG current change (%, negative = inhibition) at 10uM” value turned out to be 20.7%. On to `CC12CN3CCN(CC(C3)/C1=N/N=C/c1cccc([N+](=O)[O-])c1)C2`, for which the “hERG current change (%, negative = inhibition) at 10uM” value amounted to 3.24%. On to `C#CCOCCOCCOCCNc1nc(N2CCN(C(=O)CCCCCCCCCCNC(=O)[C@@H](CCC(=O)O)n3cc(CCCCCN)nn3)CC2)nc(N2CCN(C(=O)CCCCCCCCCCNC(=O)[C@H](CO)n3cc(CCCCCN)nn3)CC2)n1`, for which the “hERG current change (%, negative = inhibition) at 10uM” value is reported as -5.69%. With `CC(C)Oc1ccc(C(=O)Nc2ccc(N3CCCCC3)cc2)cc1`, the “hERG current change (%, negative = inhibition) at 10uM” value is recorded as -2.32%.

For the compound `CC(C)c1ccc(-c2nn[nH]n2)cc1`, the “hERG current change (%, negative = inhibition) at 10uM” value is on record as -0.908%. Consider `Cc1cc(=O)[nH]c(SCC(=O)c2ccc(F)c(C)c2)n1`, for which the “hERG current change (%, negative = inhibition) at 10uM” value is on record as 16.9%. As for `CCCN(CCC)C(=O)NC1CC(=O)N(c2ccc(OC)cc2)C1` (stereo not drawn), the “hERG current change (%, negative = inhibition) at 10uM” value is on record as -13.5%. For `COCCn1c(CN2CCC(Cc3ccccc3)CC2)nc2c1c(=O)n(C)c(=O)n2C`, the “hERG current change (%, negative = inhibition) at 10uM” value was -28.2%. With `CCCS(=O)(=O)N1CCN(Cc2ccccc2[N+](=O)[O-])CC1.O=C(O)C(=O)O` the figure was -9.2%; with `COc1cccc(C(=O)Nn2cnnc2)c1`, 17.6%.

Turning to `CC1(C)Cc2c(cnn2-c2ccc(F)cc2)C(NC(=O)CCn2cncn2)C1` (stereo not drawn), the “hERG current change (%, negative = inhibition) at 10uM” value is listed as -69.1%. The figure for `Nc1c(C(=O)Nc2ccc3c(c2)OCCO3)nnn1Cc1cccc(F)c1` is -4.88%; for `CN(C)S(=O)(=O)c1ccc(N2CCCC2)c(C(=O)N2CCN(S(=O)(=O)c3cccc(F)c3)CC2)c1` it is -10.7%; for `CC(C)(C)CN1CCNC(=O)C1CC(=O)NCCc1ccccc1F` (stereo not drawn) it is 4.25%. On to `Clc1ccc(OCc2nnc3n2N=C(c2ccc4c(c2)OCCO4)CS3)c(Cl)c1`, for which the “hERG current change (%, negative = inhibition) at 10uM” value was determined as 4.13%.

In the case of `COc1ccccc1C(=O)NNC(=O)c1ccccc1F`, the “hERG current change (%, negative = inhibition) at 10uM” value was found to be 13%.

With `Cn1c(Cn2c(=O)sc3ccccc32)nnc1SCc1ccc(F)cc1`, the “hERG current change (%, negative = inhibition) at 10uM” value is reported as -21.6%. With `COC(=O)CSc1nc(C)cc(Oc2ccccc2)n1` the figure was 6.16%; with `Cc1ccc(C)c(N2CCN(S(=O)(=O)c3ccc4c(c3)CC(C)N4C(=O)C3CC3)CC2)c1` (stereo not drawn), 13.8%; with `COc1ccc(CNC(=O)COC(=O)c2ccc(OCC3CCCO3)cc2)cc1` (stereo not drawn), -5.66%. As to `Cc1cccc(-n2nc(C)cc2N)c1`, the “hERG current change (%, negative = inhibition) at 10uM” value turned out to be 14.8%. With `CCCN1CCC(NC(=S)Nc2ccc(OC)c(OC)c2)CC1` the figure was 0.614%; with `NC(=O)C(NC(=O)OCc1ccccc1)c1ccccc1` (stereo not drawn), 0.252%.

With `CNC(=O)c1cc(OCC(F)(F)F)ccc1OCC(F)(F)F`, the “hERG current change (%, negative = inhibition) at 10uM” value was -4.26%. On to `CC(C)Cc1cc(C(=O)N2N=C(C(F)F)CC2(O)C(F)F)c2ccccc2n1` (stereo not drawn), for which the “hERG current change (%, negative = inhibition) at 10uM” value is reported as -16%.

With `CCn1cc(C(=O)NCc2ccccn2)c(=O)c2cc(F)c(N3CCN(C)CC3)cc21`, the “hERG current change (%, negative = inhibition) at 10uM” value was determined as 4.37%. Regarding `CCOC(=O)N/N=C\c1ccc(-c2cc(Cl)ccc2Cl)o1`, the “hERG current change (%, negative = inhibition) at 10uM” value is 4.19%.

Take `CC(C)Sc1nc2[nH]ncc2c(=O)[nH]1`: the “hERG current change (%, negative = inhibition) at 10uM” value was 14.5%.

Take `CCOC(=O)C1(C/C(C)=N/NC(N)=O)CC(C)OC1=O` (stereo not drawn): the “hERG current change (%, negative = inhibition) at 10uM” value is on record as -0.565%. Regarding `CCc1cc2c(N[C@@H](Cc3c[nH]c4ccccc34)C(=O)O)ncnc2s1`, the “hERG current change (%, negative = inhibition) at 10uM” value is 10.8%. With `Cc1ccc(NC(=O)c2sc3ncn(CC(=O)N4CCN(c5ccccn5)CC4)c(=O)c3c2C)cc1F`, the “hERG current change (%, negative = inhibition) at 10uM” value is listed as -15.6%.

Take `CCOc1ccc(NC(=O)COC(=O)c2ncc(Cl)c(Cl)c2Cl)cc1`: the “hERG current change (%, negative = inhibition) at 10uM” value worked out at 15.1%. Take `CCC(c1nnnn1C(C)(C)CC)N(CCN1CCOCC1)Cc1cc2cc(C)ccc2[nH]c1=O` (stereo not drawn): the “hERG current change (%, negative = inhibition) at 10uM” value is -29.6%. `N#CCCn1cc(C(=O)Nc2ccc(C(=O)O)cc2)c(-c2cccc(Br)c2)n1`: the “hERG current change (%, negative = inhibition) at 10uM” value worked out at 22%. With `COc1ccc(Cl)cc1NC(=O)COC(=O)CCc1cc(OC)c(OC)c(OC)c1` the figure was 6.7%; with `Cc1nn(CC(=O)N(C)Cc2ccc(F)cc2)c(C)c1[N+](=O)[O-]`, -10.4%. The figure for `Cc1cnc(CN(C)C(=O)c2ccc3oc(Cc4ccc(Cl)cc4)nc3c2)[nH]1` is -44.2%; for `O=C(CSc1nnnn1C1CCCC1)c1ccc2c(c1)OCCO2` it is 16.6%; for `CCCCn1c(Nc2ccc(OC)cc2)nc2ccccc21` it is 15.1%. With `Cc1ccc(-c2cc(C(=O)N/N=C\c3cnn(C)c3C)c3ccccc3n2)cc1C` the figure was -4.44%; with `O=C(CSc1nnnn1-c1ccccc1)Nc1nsc(-c2ccc(Cl)cc2)n1`, -1.4%.

As for `O=C(c1ccc(S(=O)(=O)N2CCOCC2)cc1)N(c1cccc(Cl)c1)C1C=CS(=O)(=O)C1` (stereo not drawn), the “hERG current change (%, negative = inhibition) at 10uM” value was -8.81%.

`CCCCNC(=O)Cc1ccc(C)cc1`: the “hERG current change (%, negative = inhibition) at 10uM” value amounted to 28.7%. The figure for `O=C(Nc1cccc(Cl)c1)N(CCN1CCOCC1)Cc1ccccc1F` is -49.6%; for `N#Cc1nc(-c2ccco2)oc1N1CCN(C(c2ccccc2)c2ccccc2)CC1` it is -0.82%. Turning to `Cc1ccc(N(C(=O)c2snc(C(N)=O)c2N)C(C(=O)NCCC(C)C)c2ccco2)cc1` (stereo not drawn), the “hERG current change (%, negative = inhibition) at 10uM” value is given as -10.9%. Turning to `CCN(CC(=O)Nc1cc(Cl)ccc1C)C(=O)c1cc([N+](=O)[O-])ccc1N1CCOCC1`, the “hERG current change (%, negative = inhibition) at 10uM” value is -18.5%.

For the origin of these results see article PMC4336329 (PLoS ONE, 2015).
